From PubChem BioAssay AID1159614 (National Center for Advancing Translational Sciences (NCATS), 2016) come the findings set out here.

Hit rate of the full screen: of about 45,000 compounds, about 65 (0.1%) were called active. The call rests on the fitted dose curve; in most records, active means well fitted activation curve with a large enough effect; inconclusive means small, poorly fitted or top-dose-only effect; inactive means no such curve, though single readings can be large or run the other way. The list shows a part of the results.

This test has as its target Galactocerebrosidase (Homo sapiens) (UniProt P54803). The test can be described thus: A Novel Cell-Based Assay to Identify Small Molecules for B -Galactocerebrosidase. Further: 0% is about no effect; nearly all actives have a fitted effect of over 65% in size. Particulars: 145M-Twi-hGALC-G270D cells (Twitcher mouse brain line with human GALC G270D), HMU-beta-Gal fluorescence, 48 h; series mostly up to 57.5 µM; activation: at the top concentration. Summed up: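 Fluorogenic HMU-b-Gal hydrolysis (0.1 mM final, pH 5.2 citrate-phosphate with 1 mg/mL sodium taurocholate; carbonate stop buffer) measures mutant GALC activity after compound treatment of live 145M-Twi Twitcher brain cells stably carrying human GALC-G270D, with wild-type GALC line alongside; activation sought.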
Chain of UniProt P54803 (P54803 whole entry, looked up): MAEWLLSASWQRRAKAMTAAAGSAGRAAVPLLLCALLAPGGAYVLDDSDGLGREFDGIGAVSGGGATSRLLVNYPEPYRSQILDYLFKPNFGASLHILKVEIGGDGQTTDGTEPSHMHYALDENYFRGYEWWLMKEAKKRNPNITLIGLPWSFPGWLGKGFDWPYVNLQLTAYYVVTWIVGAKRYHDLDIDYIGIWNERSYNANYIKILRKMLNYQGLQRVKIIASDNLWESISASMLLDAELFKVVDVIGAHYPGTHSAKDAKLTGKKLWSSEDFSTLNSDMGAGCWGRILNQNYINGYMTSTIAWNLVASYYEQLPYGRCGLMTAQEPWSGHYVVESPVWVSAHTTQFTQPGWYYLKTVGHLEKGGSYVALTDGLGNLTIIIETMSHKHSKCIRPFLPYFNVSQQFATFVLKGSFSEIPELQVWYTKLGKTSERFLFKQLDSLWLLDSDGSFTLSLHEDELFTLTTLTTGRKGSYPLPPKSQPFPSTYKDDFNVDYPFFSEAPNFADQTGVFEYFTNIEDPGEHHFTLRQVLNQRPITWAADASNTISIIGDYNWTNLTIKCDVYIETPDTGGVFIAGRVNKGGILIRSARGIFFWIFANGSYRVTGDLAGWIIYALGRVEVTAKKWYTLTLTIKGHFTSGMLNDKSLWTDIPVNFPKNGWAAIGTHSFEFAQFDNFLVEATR
As for `Cc1ccccc1NC(=O)c1c(NC(=O)c2ccccc2F)sc2c1CCC(C)C2` (stereo not given), the “activation” value is inactive: -13.5%. On to `COc1ccccc1NC(=O)c1ncn(-c2ccccc2)n1`, for which the “activation” value is inactive: -13.7%. In the case of `CCCCN1C(=O)c2[nH]nc(-c3ccccc3O)c2C1c1ccc(OCc2ccccc2)c(OC)c1` (stereo not given), the “activation” value was inactive: -12.9%. As for `Cc1c(C(=O)OC2CCC(C)CC2)[nH]c2c1C(=O)CC(c1ccc(F)cc1)C2` (stereo not given), the figure is inactive: -18.5%; as for `Cc1ccc(Sc2c(C)nn(C(C)(C)C)c2OC(=O)CC(C)C)cc1`, inactive: -15.2%; as for `Cc1nn(S(=O)(=O)c2ccc(F)cc2)c(C)c1S(=O)(=O)N1CCCCCC1`, inactive: -4.38%. `COc1cc(-c2cc(OC)c3c(C)oc(C)c3c(=O)c2)ccc1OC(=O)c1cccc(C)c1`: the “activation” value was inactive: -7.68%. As for `Cc1ccc(CNC(=O)c2ccc3c(c2)c(C)c(C)n3Cc2ccc(Cl)cc2)o1`, the figure is inactive: 1.12%; as for `Cc1ccc(C2C=C(c3ccccc3)Nc3nc(NS(C)(=O)=O)nn32)cc1` (stereo not given), inactive: -16%; as for `Cc1c(-c2ccccc2)c(=O)oc2c(CN3CCOCC3)c(O)ccc12`, inactive: -10.6%. Regarding `COc1ccc(NC(=O)C2CCN(c3cc(C)nc4c(-c5ccc(Cl)cc5)c(C)nn34)CC2)cc1`, the “activation” value is inactive: -2.13%. For `CCOc1ccc(C2C(C(=O)Nc3ccc(OC)cc3)=C(C)Nc3nc(CCCO)nn32)cc1` (stereo not given), the “activation” value is inactive: -14.1%. In the case of `CCc1cccc(C)c1NC(=O)CSc1nc2ccncc2[nH]1`, the “activation” value was inactive: -5.24%. Take `CCCc1cc(=O)[nH]c(SCc2nc(-c3ccc(OCC)cc3)no2)n1`: the “activation” value is inactive: -12.1%. As for `Cc1ccc(C(=O)Nc2c(C(=O)Nc3ccc(C)c(C)c3)sc3nc(C)cc(C)c23)cc1`, the figure is inactive: -15.5%.

On to `Cc1ccc(-c2noc(-c3ccc(N4CCCC4)c([N+](=O)[O-])c3)n2)cc1`, for which the “activation” value is inactive: -2.9%. Consider `CCOC(=O)c1c(C)oc2nc(C)nc(NCCc3ccc(Cl)cc3)c12`, for which the “activation” value was inactive: -17.4%. As for `Cc1ccc(NC(=O)Cn2c(=O)n(Cc3ccc4c(c3)OCO4)c(=O)c3oc4ccccc4c32)cc1C`, the figure is inactive: -16.5%; as for `CC(C)c1ccc(NC(=O)Cn2nnc(C(=O)NCc3ccc4c(c3)OCO4)c2N)cc1`, inactive: -8.54%. With `CCOC(=O)C1CCN(Cc2cn3c(-c4ccc(OC)cc4)nnc3s2)CC1`, the “activation” value was inactive: -8.91%.

As to `COc1cccc(NS(=O)(=O)c2ccc3[nH]cc(C(=O)NC(C)c4ccccc4)c(=O)c3c2)c1` (stereo not given), the “activation” value was inactive: -11%. As for `Cc1cccc(NC(=O)c2cn(-c3ccccc3)nc2-c2ccccc2)c1C`, the figure is inactive: -7.36%.

Regarding `Cc1ccccc1CN1CCCN(CC(=O)Nc2ccc(F)cc2)S1(=O)=O`, the “activation” value is inactive: -14.7%. As for `CCOc1ccc(C(=O)Nc2ccc3nc(N(CC)CC)cc(C)c3c2)cc1`, the figure is inactive: -4.67%.

Consider `Cc1cc(N2CCC(C(=O)Nc3ccc(F)cc3F)CC2)n2nc(C)c(-c3ccc(Cl)cc3)c2n1`, for which the “activation” value was inactive: -6.16%. `Cc1ccc(/C=C/C(=O)Nc2ccc3nc(N4CCC(C)CC4)cc(C)c3c2)cc1`: the “activation” value is inactive: -8.08%. With `Cn1c(=O)oc2cc(S(=O)(=O)NC(Cc3ccccc3)C(=O)Nc3ccc(F)c(Cl)c3)ccc21` (stereo not given), the “activation” value was inactive: -4.22%.

On to `CCOC(=O)c1c(C)[nH]c(C)c1S(=O)(=O)N1CCN(c2cc(Cl)ccc2C)CC1`, for which the “activation” value was inactive: -19.8%. With `O=C(c1cc(-c2ccc(Cl)cc2)n[nH]1)N1CCN(S(=O)(=O)c2ccc(Br)s2)CC1` the figure was inactive: -3.5%. With `Cc1nnc(NC(=O)c2nc(SC(C)C)ncc2Cl)s1` the figure was inactive: -13.6%. With `Clc1ccccc1Cn1c(-c2cccs2)nc2ccccc21` the figure was inactive: -13%; with `CCOc1ccc(NC(=O)c2sc(-n3nc(C)c(Cc4ccc(Cl)cc4)c3C)nc2C)cc1`, inactive: -12%; with `CCN(c1cccc(C)c1)S(=O)(=O)c1cc2c(cc1C)n(C)c(=O)c(=O)n2C`, inactive: -0.12%.

Take `CCOc1cccc2sc(NC(=O)c3ccc(S(=O)(=O)N4CCCCC4C)cc3)nc12` (stereo not given): the “activation” value was inactive: -1.62%. In the case of `Cc1cccc(N(C)C(=O)CCS(=O)(=O)c2ccc3c(c2)n(C)c(=O)c(=O)n3C)c1`, the “activation” value was inactive: -12.9%. With `CCc1cccc(NC(=O)c2ccc3c(c2)N(Cc2cccc(Cl)c2)C(=O)c2ccccc2S3=O)c1` (stereo not given) the figure was inactive: -3.26%; with `CCOC(=O)c1c(-c2ccc(C)cc2)csc1NC(=O)c1cc(-c2ccc(OC)cc2)on1`, inactive: 4.01%. `Cc1cccc(NC(=O)CN(C)S(=O)(=O)c2ccc3c(c2)c(=O)n(C)c(=O)n3C)c1C`: the “activation” value was inactive: 11.3%. With `CCCn1c2ccccc2c2cnn(CC(=O)NCCN(CC)CC)c(=O)c21` the figure was inactive: -15.3%.

Turning to `COc1ccc(-c2nc3ccccc3o2)cc1NC(=O)c1cccnc1`, the “activation” value was inactive: -11.8%. On to `COc1ccc(CCNC(=O)c2ccc3c(c2)N=C(C)c2ccccc2S3)cc1OC`, for which the “activation” value is inactive: -6.55%. With `COc1ccc(CCNS(=O)(=O)c2c(C)nc3sc(C)cn3c2=O)cc1OC` the figure was inactive: -7.03%. With `Cc1cc(Nc2cccc(C(=O)O)c2)n2nc(C)nc2n1`, the “activation” value is inactive: -7.49%.

As for `CCCCOc1ccc(C(=O)Nc2cc(-c3cn4cccnc4n3)ccc2OC)cc1`, the “activation” value is inactive: 3.28%. With `COc1ccc(NC(=O)NC(C)c2c(-n3cccc3)sc(C)c2C)cc1OC` (stereo not given) the figure was inactive: -3.7%.

For the compound `CCN(CC)CCCNC(=O)c1ccc2c(c1)sc1nc(-c3ccc(C)cc3)cn12`, the “activation” value is inactive: -9.53%. As for `CCOc1c(Cl)cc(CNc2ccc3[nH]c(=O)[nH]c3c2)cc1OC`, the figure is inactive: -8.66%. Regarding `CCOc1ccc(CNC(=O)c2ccc(NC(=O)N3CCCCc4ccccc43)cc2)cc1`, the “activation” value was inactive: -8.39%. With `Cc1c(NC(=O)Cc2ccc(Cl)cc2)cccc1-c1nc2cccnc2s1` the figure was inactive: -8.21%; with `CCOC(=O)c1c(C)[nH]c(C)c1S(=O)(=O)NCC(=O)Nc1cccc(Cl)c1`, inactive: -3.09%; with `O=C(NCCO[N+](=O)[O-])c1cccnc1`, inactive: -15.9%. With `CCOC(=O)c1c(S(=O)(=O)N2CCCC(C(=O)Nc3cccc(CC)c3)C2)c(C)n(CC)c1C` (stereo not given) the figure was inactive: 5.84%; with `Cc1cccc(OC(=O)CSc2nnc(-c3cccs3)o2)c1C`, inactive: -5.16%; with `CSc1ncc(Cl)c(C(=O)Nc2c(C(=O)c3ccc(Cl)cc3)oc3ccccc23)n1`, inactive: -10.9%. As for `Cc1ccc(-n2ncc(C(=O)N3CCN(c4ccccc4F)CC3)c2C2CCN(C(=O)OC(C)(C)C)CC2)cc1C`, the figure is inactive: 7.95%. As to `Cc1ccccc1Nc1c(-c2c[nH]c3ccccc23)nc2ccc(Cl)cn12`, the “activation” value is inactive: 1.97%. With `O=C(CSc1nc(Nc2ccccc2)c2ccccc2n1)c1ccc(Cl)cc1` the figure was inactive: -15.1%; with `Cc1ccc(Cl)c(Nc2ccccc2C(=O)O)c1Cl`, inactive: -20.3%. With `Cc1cc(C)cc(NC(=O)NCc2c(-n3cccc3)sc3c2CCCC3)c1` the figure was inactive: -13.4%; with `Cc1c(CNC2CCCCCC2)c(C(=O)O)c(C)n1Cc1cccc(Cl)c1`, inactive: -1.8%; with `Cc1cccc(CNC(=O)Cn2nc(C)c3nn(-c4ccc(Cl)cc4)c(C)c3c2=O)c1`, inactive: -14.3%.

On to `Cc1cccc(N2CCN(C(=O)CCS(=O)(=O)c3ccc4c(c3)CC(=O)N4C)CC2C)c1` (stereo not given), for which the “activation” value was inactive: -7.77%. As for `CCCCOC(=O)c1ccc(NC(=O)c2ccc3c(c2)CCN3S(C)(=O)=O)cc1`, the figure is inactive: -9.54%; as for `Cc1cccc(C(c2sc3nc(-c4ccco4)nn3c2O)N2CCOCC2)c1` (stereo not given), inactive: -8.46%; as for `Cc1ccc(NS(=O)(=O)c2ccc3c(c2)n(C)c(=O)n3C)c(C)c1`, inactive: -20.3%. With `CC(=O)N1CCN(c2csc3ccc(Cl)cc3c2=O)CC1` the figure was inactive: -5.38%. `COC(=O)c1scc(-c2ccc(C)cc2)c1S(=O)(=O)Nc1cc(C)c(Cl)cc1OC`: the “activation” value was inactive: 6.65%. In the case of `Clc1cccc(CNCCCSc2nnnn2-c2ccccc2)c1`, the “activation” value is inactive: -1.31%. As to `CCOc1ccccc1NC(=O)Cn1c(=O)oc2ccccc21`, the “activation” value is inactive: -2.56%. With `COc1ccc(-c2noc(N3CCC(C(=O)N4CCN(c5cccc(OC)c5)CC4)CC3)n2)cc1`, the “activation” value was inactive: -6.58%.

`CCOC(=O)c1c(-c2ccccc2)oc2ccc(OCc3ccccc3Br)cc12`: the “activation” value was inactive: -11.7%. On to `COc1ccc(NC(=O)Cn2cc(C(=O)c3ccc(C)c(C)c3)c(=O)c3cc(OC)ccc32)cc1`, for which the “activation” value is inactive: -2.24%.

As for `CCNc1nc2c(c(=O)n(C)c(=O)n2C)n1Cc1ccc(F)cc1`, the “activation” value is inactive: -15.8%. As for `O=C(NCCc1cccs1)c1ccc(Cn2c(SCc3cccc(F)c3)nc3cccnc32)cc1`, the figure is inactive: -9.5%. With `Fc1cccc(CN2CCc3nc(Nc4ccc5c(c4)OCCO5)ncc3C2)c1F` the figure was inactive: -4.96%; with `O=C(Cn1cc(C(=O)c2ccco2)c2ccccc21)Nc1ccccc1C(F)(F)F`, inactive: -43.8%; with `COc1ccc(-c2csc3ncnc(Nc4ccccc4)c23)cc1`, inactive: -15.2%. `Cc1ccc(CSC2=NC(C)(C)Nc3ccccc32)c(C)c1`: the “activation” value was inactive: 13.2%. With `Cc1ccccc1S(=O)Cc1ccc(C(=O)NCc2ccccc2Cl)o1` (stereo not given), the “activation” value is inactive: -26.9%. Take `COc1cccc(NC(=O)Cn2c(=O)n(CCC(=O)NCc3ccccc3OC)c(=O)c3ccccc32)c1`: the “activation” value was inactive: -8.36%. In the case of `COc1ccc(Cl)cc1NC(=O)Cn1c(=O)n2nc(-c3ccccc3)nc2c2ccccc21`, the “activation” value is inactive: -7.8%. In the case of `COc1cc(C2C=C(C(=O)O)Nc3ncnn32)ccc1O` (stereo not given), the “activation” value is inactive: -7.2%. With `CCOc1ccc2c(c1)c(=O)c(C(=O)c1ccc(CC)cc1)cn2CC(=O)Nc1ccc2c(c1)OCCO2` the figure was inactive: -13.3%. As for `COC(=O)c1c(C)oc2ccc(N(C(=O)c3ccncc3)S(=O)(=O)c3ccc(Br)cc3)cc12`, the figure is inactive: -10.9%; as for `COc1ccc(CNC(=O)c2nn(C)c3c2CSc2ccccc2-3)cc1`, inactive: -0.576%; as for `COc1ccc(CNS(=O)(=O)c2ccc(-c3cc(C(F)(F)F)on3)s2)cc1OC`, inactive: -27.4%. With `O=C(Nc1cccc(F)c1)c1cnc2sc(N3CCCC3)nn2c1=O` the figure was inactive: -8.3%. For the compound `COc1ccc(-c2csc(-c3c(N)c(C(=O)c4ccc(OC)c(OC)c4)n4ccccc34)n2)cc1`, the “activation” value was inactive: -2.46%. With `CCN1CCc2c(sc(-n3cccc3)c2C(C)NC(=O)Nc2ccc(C(=O)OC)cc2)C1` (stereo not given) the figure was inactive: -16.2%. As for `COc1ccc(C)c2sc(N(Cc3cccnc3)C(=O)c3cccs3)nc12`, the “activation” value was inactive: -2.92%. As to `Cc1ccc(NC(=O)Cn2cc3c(n2)CCCC3)cc1Cl`, the “activation” value is inactive: -5.25%.

As to `CCN1CCN(C(=O)N[C@@H](C(=O)N[C@@H]2C(=O)N3C(C(=O)O)=C(CSc4nnnn4C)CS[C@H]23)c2ccc(O)cc2)C(=O)C1=O`, the “activation” value was inactive: -12.3%. With `COc1ccc(N(C)S(=O)(=O)c2ccc3c(c2)CCN3C(=O)CCC(=O)O)cc1` the figure was inactive: -14.8%; with `CCOC(=O)c1ccc(N2C(=O)c3n[nH]c(-c4ccco4)c3C2c2ccccc2OC)cc1` (stereo not given), inactive: -15.1%. As for `Cc1ccc(NC(=O)Cn2c(=O)n(Cc3ccccc3)c(=O)c3c(C)c(C(=O)N(C)C)sc32)c(C)c1`, the “activation” value is inactive: -12.3%.
